# Reference: the supplement of paper PMC4967469
# The IC50 comes from the fitted curve, where viability falls to half of the control; a limit (>, <) means that the fit lies beyond the doses tested. AUC is the area under the same curve over the 256-fold range up to the top dose, as a fraction; the more sensitive the line, the further below 1. For some assays here: A top dose marked as inferred is not printed in the source and was worked back from the curve model.
# How the values were obtained:
# Assay in all cases: Viability of human cancer cell lines after 72 h of drug (GDSC screen)
# BMX-IN-1 (QL-XII-61) = compound: C=CC(=O)Nc1cc(-n2c(=O)ccc3cnc4ccc(-c5ccc(NS(C)(=O)=O)cc5)cc4c32)ccc1C [BMX-IN-1 (QL-XII-61)]; details: top dose 10 µM; top dose inferred
# Description: (§1)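 Human cancer cell lines in 384-well plates, medium with 10% serum, drug for 72 h over a 256-fold dose range (nine 2-fold or five 4-fold steps up to the top dose). Adherent lines were fixed and stained with the nucleic acid dye Syto60, suspension lines read with resazurin; signal relative to control wells, capped at 0 and 100%. One two-parameter sigmoid per drug and line, fitted in a mixed model over all curves with the slope shared within a line.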
# 17-AAG = compound: C=CCNC1=C2C[C@@H](C)C[C@H](OC)[C@H](O)[C@@H](C)/C=C(\C)[C@H](OC(N)=O)[C@@H](OC)/C=C\C=C(/C)C(=O)NC(=CC1=O)C2=O [17-AAG]; details: top dose 1 µM
# Description: as §1
# CCT018159 = compound: CCc1cc(-c2n[nH]c(C)c2-c2ccc3c(c2)OCCO3)c(O)cc1O [CCT018159]; details: top dose 10 µM; top dose inferred
# Description: as §1
# BIX02189 = compound: CN(C)Cc1cccc(N=C(c2ccccc2)c2c(O)[nH]c3cc(C(=O)N(C)C)ccc23)c1 [BIX02189]; details: top dose 20 µM; top dose inferred
# Description: as §1
# Dimethyloxalylglycine = compound: COC(=O)CNC(=O)C(=O)OC [Dimethyloxalylglycine]; details: top dose 4000 µM; top dose inferred
# Description: as §1
# Doxorubicin = compound: COc1cccc2c1C(=O)c1c(O)c3c(c(O)c1C2=O)C[C@@](O)(C(=O)CO)C[C@@H]3O[C@H]1C[C@H](N)[C@H](O)[C@H](C)O1 [Doxorubicin]; details: top dose 1.024 µM
# Description: as §1
# OSI-027 = compound: COc1cccc2cc(-c3nc([C@H]4CC[C@H](C(=O)O)CC4)n4ncnc(N)c34)[nH]c12 [OSI-027]; details: top dose 20 µM
# Description: as §1
# Vismodegib = compound: CS(=O)(=O)c1ccc(C(=O)Nc2ccc(Cl)c(-c3ccccn3)c2)c(Cl)c1 [Vismodegib]; details: top dose 10 µM; top dose inferred
# Description: as §1
# VX-11e = compound: Cc1cnc(Nc2ccc(F)cc2Cl)nc1-c1c[nH]c(C(=O)N[C@H](CO)c2cccc(Cl)c2)c1 [VX-11e]; details: top dose 5.12 µM; top dose inferred
# Description: as §1
# TG101348 = compound: Cc1cnc(Nc2ccc(OCCN3CCCC3)cc2)nc1Nc1cccc(S(=O)(=O)NC(C)(C)C)c1 [TG101348]; details: top dose 10.24 µM
# Description: as §1
# UNC1215 = compound: O=C(c1ccc(C(=O)N2CCC(N3CCCC3)CC2)c(Nc2ccccc2)c1)N1CCC(N2CCCC2)CC1 [UNC1215]; details: top dose 1 µM; top dose inferred
# Description: as §1
Cell Line,AUC (BMX-IN-1 (QL-XII-61)),IC50 (BMX-IN-1 (QL-XII-61)),AUC (17-AAG),IC50 (17-AAG),AUC (CCT018159),IC50 (CCT018159),AUC (BIX02189),IC50 (BIX02189),AUC (Dimethyloxalylglycine),IC50 (Dimethyloxalylglycine),AUC (Doxorubicin),IC50 (Doxorubicin),AUC (OSI-027),IC50 (OSI-027),AUC (Vismodegib),IC50 (Vismodegib),AUC (VX-11e),IC50 (VX-11e),AUC (TG101348),IC50 (TG101348),AUC (UNC1215),IC50 (UNC1215)
"MOG-G-CCM (glioma, adherent)",0.963,> 10 µM,0.694,0.242 µM,0.935,> 10 µM,0.922,> 20 µM,0.577,422 µM,0.64,0.167 µM,0.361,0.482 µM,0.933,> 10 µM,0.952,> 5.12 µM,0.85,9.86 µM,0.976,> 1 µM
"PCI-4B (head and neck, adherent)",0.964,> 10 µM,0.488,0.058 µM,0.829,5.81 µM,0.94,> 20 µM,0.592,442 µM,0.38,0.0305 µM,0.257,0.262 µM,0.938,> 10 µM,0.936,> 5.12 µM,0.769,3.66 µM,0.986,> 1 µM
"LB2518-MEL (melanoma, adherent)",0.986,> 10 µM,0.707,0.248 µM,0.98,> 10 µM,0.98,> 20 µM,0.515,274 µM,0.758,0.372 µM,0.984,> 20 µM,0.981,> 10 µM,0.828,3.38 µM,0.987,> 10.2 µM,0.986,> 1 µM
"H2731 (mesothelioma, adherent)",0.945,> 10 µM,0.765,0.417 µM,0.927,> 10 µM,0.812,12.7 µM,0.826,2900 µM,0.911,> 1.02 µM,0.703,5.11 µM,0.984,> 10 µM,0.887,> 5.12 µM,0.648,1.75 µM,0.981,> 1 µM
"CAS-1 (glioma, adherent)",0.936,> 10 µM,0.888,> 1 µM,0.956,> 10 µM,0.925,> 20 µM,0.51,270 µM,0.679,0.244 µM,0.709,6.12 µM,0.981,> 10 µM,0.919,> 5.12 µM,0.757,4.77 µM,0.977,> 1 µM
"RT4 (bladder, adherent)",0.929,> 10 µM,0.8,0.513 µM,0.986,> 10 µM,0.752,6.96 µM,0.643,634 µM,0.848,0.824 µM,0.689,4.36 µM,0.987,> 10 µM,0.693,1.15 µM,0.859,9.24 µM,0.985,> 1 µM
"huH-1 (liver, adherent)",0.982,> 10 µM,0.512,0.0681 µM,0.907,> 10 µM,0.984,> 20 µM,0.359,92.2 µM,0.908,> 1.02 µM,0.952,> 20 µM,0.947,> 10 µM,0.984,> 5.12 µM,0.977,> 10.2 µM,0.982,> 1 µM
"Farage (B-cell lymphoma, suspension)",0.838,5.1 µM,0.937,> 1 µM,0.945,> 10 µM,0.969,> 20 µM,0.486,231 µM,0.31,0.021 µM,0.109,0.0984 µM,0.988,> 10 µM,0.719,1.17 µM,0.799,3.93 µM,0.988,> 1 µM
"RC-K8 (B-cell lymphoma, suspension)",0.992,> 10 µM,0.993,> 1 µM,0.993,> 10 µM,0.975,> 20 µM,0.943,> 4000 µM,0.867,0.728 µM,0.891,17.9 µM,0.992,> 10 µM,0.988,> 5.12 µM,0.977,> 10.2 µM,0.981,> 1 µM
"OE21 (oesophagus, adherent)",0.963,> 10 µM,0.532,0.0789 µM,0.815,8.33 µM,0.953,> 20 µM,0.491,235 µM,0.685,0.259 µM,0.935,> 20 µM,0.942,> 10 µM,0.961,> 5.12 µM,0.911,> 10.2 µM,0.971,> 1 µM
"GB-1 (glioma, adherent)",0.98,> 10 µM,0.944,> 1 µM,0.862,> 10 µM,0.902,> 20 µM,0.354,91.4 µM,0.703,0.267 µM,0.348,0.436 µM,0.961,> 10 µM,0.788,2.69 µM,0.909,> 10.2 µM,0.979,> 1 µM
"KELLY (neuroblastoma, adherent)",0.975,> 10 µM,0.903,> 1 µM,0.853,6.73 µM,0.841,12.1 µM,0.652,632 µM,0.829,0.561 µM,0.747,5.9 µM,0.981,> 10 µM,0.911,> 5.12 µM,0.884,9.33 µM,0.987,> 1 µM
"H2369 (mesothelioma, adherent)",0.976,> 10 µM,0.557,0.0901 µM,0.933,> 10 µM,0.972,> 20 µM,0.272,54.9 µM,0.491,0.0605 µM,0.915,> 20 µM,0.987,> 10 µM,0.978,> 5.12 µM,0.954,> 10.2 µM,0.985,> 1 µM
"PCI-30 (head and neck, adherent)",0.954,> 10 µM,0.416,0.0349 µM,0.868,> 10 µM,0.969,> 20 µM,0.665,804 µM,0.905,> 1.02 µM,0.93,> 20 µM,0.963,> 10 µM,0.981,> 5.12 µM,0.95,> 10.2 µM,0.975,> 1 µM
"ETK-1 (biliary tract, adherent)",0.904,> 10 µM,0.583,0.109 µM,0.911,> 10 µM,0.941,> 20 µM,0.615,543 µM,0.554,0.0915 µM,0.722,5.85 µM,0.969,> 10 µM,0.935,> 5.12 µM,0.902,> 10.2 µM,0.981,> 1 µM
"MFE-296 (endometrium, adherent)",0.852,8.65 µM,0.611,0.129 µM,0.911,> 10 µM,0.962,> 20 µM,0.538,321 µM,0.522,0.0737 µM,0.355,0.48 µM,0.975,> 10 µM,0.979,> 5.12 µM,0.924,> 10.2 µM,0.983,> 1 µM
"T84 (large intestine, adherent)",0.988,> 10 µM,0.967,> 1 µM,0.939,> 10 µM,0.963,> 20 µM,0.891,> 4000 µM,0.483,0.0575 µM,0.795,9.44 µM,0.989,> 10 µM,0.846,3.84 µM,0.928,> 10.2 µM,0.988,> 1 µM
"CHSA8926 (chondrosarcoma, adherent)",0.962,> 10 µM,0.959,> 1 µM,0.973,> 10 µM,0.852,> 20 µM,0.964,> 4000 µM,0.768,0.549 µM,0.921,> 20 µM,0.98,> 10 µM,0.89,> 5.12 µM,0.871,> 10.2 µM,0.971,> 1 µM
"JEG-3 (urogenital system, adherent)",0.99,> 10 µM,0.691,0.202 µM,0.844,6.15 µM,0.991,> 20 µM,0.794,1650 µM,0.59,0.11 µM,0.988,> 20 µM,0.991,> 10 µM,0.991,> 5.12 µM,0.991,> 10.2 µM,0.99,> 1 µM
"KYSE-50 (oesophagus, adherent)",0.989,> 10 µM,0.959,> 1 µM,0.876,8.42 µM,0.96,> 20 µM,0.513,271 µM,0.553,0.0879 µM,0.515,1.37 µM,0.979,> 10 µM,0.945,> 5.12 µM,0.759,3.3 µM,0.989,> 1 µM
"EW-24 (Ewing sarcoma, semi-adherent)",0.908,> 10 µM,0.984,> 1 µM,0.989,> 10 µM,0.983,> 20 µM,0.867,2900 µM,0.892,0.946 µM,0.993,> 20 µM,0.974,> 10 µM,0.983,> 5.12 µM,0.89,9.29 µM,0.989,> 1 µM
"KMRC-20 (kidney, adherent)",0.982,> 10 µM,0.675,0.194 µM,0.939,> 10 µM,0.987,> 20 µM,0.704,952 µM,0.873,1.01 µM,0.959,> 20 µM,0.976,> 10 µM,0.989,> 5.12 µM,0.932,> 10.2 µM,0.988,> 1 µM
"SW1710 (bladder, adherent)",0.797,4.9 µM,0.718,0.266 µM,0.929,> 10 µM,0.89,> 20 µM,0.496,244 µM,0.309,0.0182 µM,0.298,0.332 µM,0.976,> 10 µM,0.937,> 5.12 µM,0.827,6.52 µM,0.974,> 1 µM
